Consider 16 compounds from the antibiotic and cytotoxicity screens of Wong et al. (2023).

This is one part of the list.

Assay [1] relates to HSkMC (human skeletal muscle cells). The experiment in a line: cytotoxicity call (relative viability < 0.9). To be noted: 10 µM.
Assay [2] deals with HepG2. Put plainly: cytotoxicity call (relative viability < 0.9). The note with it: 10 µM.
In assay [3] the test system is S. aureus RN4220. Put plainly: growth inhibition call (relative growth <= 0.2). The note with it: 50 µM.

On to `COc1ccc2c3c(n(c2c1)C)[C@@H](CO)N(C[C@]13CCN(CC1)S(=O)(=O)C)C(=O)CN(C)C`, for which the cytotoxicity call in assay [1] and in assay [2] was “inactive” throughout. For the same compound, in assay [3], the growth inhibition call was “inactive”.

Consider `Cc1noc(C)c1NC(=O)Nc1cccc2c1O[C@H](CN(C)C(=O)Nc1ccc(C(F)(F)F)cc1)[C@H](C)CN([C@@H](C)CO)C2=O`, for which the cytotoxicity call in assay [1] and in assay [2] was “inactive” each time. For the same compound, the growth inhibition call in assay [3] was “inactive”.

Turning to `C=C(NC(=O)C(=C)NC(=O)c1csc(C2=N[C@@H]3c4csc(n4)[C@@H]4NC(=O)c5csc(n5)[C@H](C(C)(O)[C@@H](C)O)NC(=O)[C@H]5CSC(=N5)/C(=C/C)NC(=O)[C@H]([C@@H](C)O)NC(=O)c5csc(n5)[C@]3(CC2)NC(=O)[C@@H](C)NC(=O)C(=C)NC(=O)[C@@H](C)NC(=O)[C@@H]([C@H](C)CC)N[C@H]2C=Cc3c([C@@H](C)O)cc(nc3[C@@H]2O)C(=O)O[C@H]4C)n1)C(N)=O` (stereo partly drawn), the cytotoxicity call in assay [1] and in assay [2] was “inactive” in each case. In addition, the growth inhibition call in assay [3] was “inactive”.

As to `O=C(CCCCCNC(=O)OCc1ccc(CO[C@@H]2C[C@H](c3ccc(Br)cc3)C=C(C(=O)N3CCN(Cc4ccc5c(c4)OCO5)CC3)O2)cc1)NO`, the cytotoxicity call in assay [1] and in assay [2] was “inactive” in each case. Moreover, the growth inhibition call in assay [3] was “inactive”.

On to `C[C@@H]1CCCCO[C@@H](CN(C)Cc2ccc(Cl)c(Cl)c2)[C@H](C)CN([C@@H](C)CO)C(=O)c2cc(NC(=O)CCC(F)(F)F)ccc2O1`, for which the cytotoxicity call in assay [1] and in assay [2] was “inactive” throughout. Besides, in assay [3], the growth inhibition call is “inactive”.

Regarding `C[C@H]1CN([C@@H](C)CO)C(=O)Cc2cc(NC(=O)Cc3cn(C)c4ccccc34)ccc2O[C@H]1CN(C)C`, the cytotoxicity call in assay [1] and in assay [2] was “inactive” throughout. Also, the growth inhibition call in assay [3] was “inactive”.

Turning to `CN(C)c1nc(N)nc(CSc2nnnn2C)n1`, the cytotoxicity call in assay [1] and in assay [2] was “inactive” throughout. In assay [3], the growth inhibition call was “inactive”.

Consider `C[C@@H]1CCCCO[C@@H](CN(C)CC2CCCCC2)[C@@H](C)CN([C@@H](C)CO)C(=O)c2cc(NC(=O)Nc3ccc4c(c3)OCO4)ccc2O1`, for which the cytotoxicity call in assay [1] is “inactive”. Moreover, the cytotoxicity call in assay [2] is “active”. For the same compound, the growth inhibition call in assay [3] is “inactive”.

Consider `Cc1ccc(S(=O)(=O)N[C@@H]2C=C[C@@H](CC(=O)NCCN3CCCCC3)O[C@H]2CO)cc1`, for which the cytotoxicity call in assay [1] and in assay [2] was “inactive” throughout. The growth inhibition call in assay [3] is “inactive”.

On to `C[C@H]1CN([C@@H](C)CO)C(=O)c2cccc(NC(=O)C3CC3)c2O[C@H]1CN(C)C(=O)NC1CCCCC1`, for which the cytotoxicity call in assay [1] and in assay [2] was “inactive” each time. Moreover, the growth inhibition call in assay [3] is “inactive”.

Turning to `C[C@H]1CN([C@@H](C)CO)C(=O)c2cc(NS(=O)(=O)c3ccc(Cl)cc3)ccc2O[C@@H]1CN(C)S(=O)(=O)c1cn(C)cn1`, the cytotoxicity call in assay [1] and in assay [2] was “inactive” throughout. Moreover, the growth inhibition call in assay [3] was “inactive”.

Consider `C[C@@H]1CN([C@H](C)CO)C(=O)c2cccc(NC(=O)CCCCCC(=O)Nc3ccccc3N)c2O[C@@H]1CN(C)C(=O)Nc1ccc(F)cc1`, for which the cytotoxicity call in assay [1] and in assay [2] was “inactive” in each case. Moreover, in assay [3], the growth inhibition call is “inactive”.

With `COc1ccc(-c2cnc3c(c2)C(=O)N([C@H](C)CO)C[C@H](C)[C@H](CN(C)C(=O)Cc2ccccn2)O3)cc1`, the cytotoxicity call in assay [1] and in assay [2] was “inactive” each time. Moreover, in assay [3], the growth inhibition call was “inactive”.

Consider `C[C@@H]1CN([C@@H](C)CO)C(=O)c2cc(NC(=O)Cc3ccccc3)ccc2O[C@@H](C)CCCCO[C@@H]1CN(C)C(=O)Nc1cccc2ccccc12`, for which the cytotoxicity call in assay [1] is “inactive”. Besides, the cytotoxicity call in assay [2] is “active”. Besides, the growth inhibition call in assay [3] is “inactive”.

Consider `C[C@@H]1CN([C@@H](C)CO)C(=O)Cc2cc(NC(=O)Cc3cn(C)c4ccccc34)ccc2O[C@H]1CN(C)Cc1ccc(C(F)(F)F)cc1`, for which, in assay [1], the cytotoxicity call was “inactive”. In addition, the cytotoxicity call in assay [2] is “active”. In addition, the growth inhibition call in assay [3] is “inactive”.

Take `Cc1ccc(S(=O)(=O)N(C)C[C@H]2Oc3ccc(NS(=O)(=O)c4cn(C)cn4)cc3CC(=O)N([C@H](C)CO)C[C@H]2C)cc1`: the cytotoxicity call in assay [1] and in assay [2] was “inactive” throughout. Also, the growth inhibition call in assay [3] is “inactive”.
